Out of some 45,000 compounds screened, about 65 (0.1%) were called active. Calls follow the shape of the dose curve; as a rule, active = well fitted activation curve with a large enough effect; inconclusive = small, poorly fitted or top-dose-only effect; inactive = no such curve, though single readings can be large or run the other way. Some of the results follow.

61 compounds from PubChem BioAssay AID1159614 (National Center for Advancing Translational Sciences (NCATS), 2016) can be followed below.

The assay has as its target Galactocerebrosidase (Homo sapiens) (UniProt P54803). Kind of assay: A Novel Cell-Based Assay to Identify Small Molecules for B -Galactocerebrosidase. Also: 0% is about no effect; nearly all actives have a fitted effect of over 65% in size. To be noted: 145M-Twi-hGALC-G270D cells (Twitcher mouse brain line with human GALC G270D), HMU-beta-Gal fluorescence, 48 h; series mostly up to 57.5 µM; activation: at the top concentration. The gist of the method: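 Mutant human GALC (G270D), stably expressed in a Twitcher mouse brain cell line lacking endogenous GALC, is measured in live-treated cells via 6-hexadecanoylamino-4-methylumbelliferyl-β-galactoside hydrolysis (0.1 mM final, pH 5.2) with fluorescent detection.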
Chain of UniProt P54803 (P54803 whole entry, looked up): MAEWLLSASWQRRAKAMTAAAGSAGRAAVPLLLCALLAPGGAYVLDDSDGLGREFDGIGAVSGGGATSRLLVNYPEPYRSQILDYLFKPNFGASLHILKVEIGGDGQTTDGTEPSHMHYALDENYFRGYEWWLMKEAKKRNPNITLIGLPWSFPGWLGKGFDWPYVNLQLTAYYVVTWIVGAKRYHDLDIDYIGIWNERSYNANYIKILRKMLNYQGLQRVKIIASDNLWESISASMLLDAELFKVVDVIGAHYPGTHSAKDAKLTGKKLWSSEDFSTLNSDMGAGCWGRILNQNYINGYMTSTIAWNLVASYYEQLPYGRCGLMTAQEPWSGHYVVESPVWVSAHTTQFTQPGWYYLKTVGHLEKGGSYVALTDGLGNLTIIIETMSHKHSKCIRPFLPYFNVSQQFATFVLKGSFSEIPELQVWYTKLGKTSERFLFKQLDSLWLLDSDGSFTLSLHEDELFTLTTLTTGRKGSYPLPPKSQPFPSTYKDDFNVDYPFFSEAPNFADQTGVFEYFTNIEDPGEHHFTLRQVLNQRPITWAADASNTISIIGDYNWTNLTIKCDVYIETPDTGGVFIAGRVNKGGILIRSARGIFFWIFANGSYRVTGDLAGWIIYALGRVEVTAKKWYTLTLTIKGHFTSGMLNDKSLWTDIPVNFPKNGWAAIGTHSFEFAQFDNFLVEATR
Take `CCc1ccccc1NC(=O)c1ccc2c(c1)c(C)c(C)n2Cc1ccccc1`: the “activation” value was inactive: -5.04%. Turning to `COC(=O)c1cc2sccc2n1Cc1nc(-c2ccc(C)cc2)oc1C`, the “activation” value was inactive: -22.7%.

With `CN(C(=O)CSc1nc2ccccc2n1CC(=O)N(C)C1CCCCC1)c1ccc(F)cc1`, the “activation” value is inactive: -9.16%. As for `CCCCN(c1ccccc1)c1ncnc2c1cnn2-c1cccc(C)c1`, the figure is inactive: -7.66%; as for `CC(=O)Nc1ccc2nc(SCCOc3ccccc3Cl)sc2c1`, inactive: -39.3%. Consider `CCOC(=O)c1c(C)[nH]c(C)c1S(=O)(=O)N(C)CC(=O)Nc1ccc(C)c(F)c1`, for which the “activation” value is inactive: -13.1%. As for `CCc1nnc2c3ccccc3nc(N3CCN(c4cc(Cl)ccc4C)CC3)n12`, the figure is inactive: -1.66%; as for `COc1ccc(NC(=O)CCc2c(C)nc3cc(-c4cccc(F)c4)nn3c2C)cc1Cl`, inactive: -13.1%; as for `CCOc1ccc(NC(=O)Cn2c(=O)n(-c3ccccc3)c(=O)c3c4c(sc32)CCCC4)cc1`, inactive: -2.21%.

For `CCc1ccc(S(=O)(=O)c2cn(Cc3ccc(OC)cc3)c3cc(OC)c(OC)cc3c2=O)cc1`, the “activation” value was inactive: 7.03%. As for `O=C(COc1ccc(Br)cc1)Nc1ccc(C(=O)OC2CCCCC2)cc1`, the figure is inactive: -16.3%.

Turning to `Cc1cccc(C(=O)Nc2ccccc2OCc2cc(=O)n3cc(C)ccc3n2)c1`, the “activation” value was inactive: -3.24%. Consider `CC(=O)N1CCCc2cc(S(=O)(=O)N3CCCC(C(=O)Nc4ccc(C)c(F)c4)C3)ccc21` (stereo unspecified), for which the “activation” value is inactive: -13.6%.

Turning to `COC(=O)c1c(Oc2ccc(Br)cc2)nnc(-c2ccccc2)c1-c1ccccc1`, the “activation” value was inactive: -14.6%. As for `Cc1c(Cl)cccc1NC(=O)Cn1c(=O)n(Cc2ccco2)c(=O)c2oc3ccccc3c21`, the “activation” value is inactive: -8.73%. Consider `O=C1CC(c2ccc(Br)cc2)c2c(ccc3ccccc23)N1` (stereo unspecified), for which the “activation” value is inactive: -24.5%. For the compound `Cc1ccc(CN2CCC(CNC(=O)Nc3cccc(C)c3C)C2)cc1` (stereo unspecified), the “activation” value is inactive: -4.88%. Turning to `CCc1nc2nc(C)cc(Nc3ccc(F)c(Cl)c3)n2n1`, the “activation” value is inactive: -9.21%. Take `CC(C)n1c(=O)c2oc3ccccc3c2n(CC(=O)Nc2ccccc2Cl)c1=O`: the “activation” value is inactive: -4.99%. Under `COc1ccccc1-c1c(C)nn2c(N3CCN(c4ccc(F)cc4)CC3)cc(C)nc12` stands inactive: -12.4%; under `CCN(CC)CCCNc1oc(-c2ccc(OC)cc2)nc1C#N`, inactive: -11.4%; under `CN1C(=O)c2ccccc2Sc2ccc(NC(=O)N3CCN(c4cccc(Cl)c4)CC3)cc21`, inactive: -41.8%.

Take `COc1ccc(Cl)cc1NC(=O)CCn1nc(C)cc1C`: the “activation” value was inactive: -10.1%.

For the compound `CN(C)c1ccc(C(=O)NCc2ccc3c(c2)CCN3C(=O)c2ccc(Cl)cc2)cc1`, the “activation” value is inactive: -12.2%. As for `Clc1ccc(CNc2ncnc3onc(-c4ccc(Cl)cc4)c23)cc1`, the “activation” value is inactive: -11.3%. Turning to `COc1ccc(OC)c(CNc2ncnc3onc(C)c23)c1`, the “activation” value was inactive: -10.4%. On to `CCc1cccc(C)c1NC(=O)c1cc(S(=O)(=O)N2CCN(c3ccccc3)CC2)ccc1F`, for which the “activation” value was inactive: -10.8%. `CCOC(=O)c1cc2c(=O)n3ccccc3nc2n(C(C)C)c1=NC(=O)c1c(-c2c(F)cccc2Cl)noc1C`: the “activation” value is inactive: -14.6%.

As for `COc1ccc2c(c1)CC(C(=O)Nc1cc(OC)c(OC)c(OC)c1)CO2` (stereo unspecified), the “activation” value was inactive: -10.9%. For `Cc1cccc(CCNC(=O)CCc2c(C)nc3c(c(C)nn3-c3ccccc3)c2C)c1`, the “activation” value was inactive: -17.2%.

For `COc1cc(OC)cc(C(=O)Nc2cccc(-c3cn4ccsc4n3)c2)c1`, the “activation” value is inactive: -0.812%. With `COc1ccc(C(=O)NCc2ccc3c(c2)CCN3C(=O)c2ccc(Cl)cc2)c(OC)c1`, the “activation” value was inactive: -16.8%. As for `CCC1CCCCN1C(=O)Cn1c(=O)n(-c2ccc(Cl)c(Cl)c2)c(=O)c2c(C)c(C(=O)N(C)C)sc21` (stereo unspecified), the figure is inactive: -1.66%. `CCOc1ccc(NC(=O)CSc2cn(CC(=O)N3CCOCC3)c3ccccc23)cc1`: the “activation” value is inactive: -12.6%. Under `CC(C)OCCCn1c(SCc2ccccc2Cl)nc2c(sc3ccccc32)c1=O` stands inactive: 1.51%; under `CCC(Cc1ccccc1)NC(=O)c1cccc(Nc2nc3ccccc3nc2-n2nc(C)cc2C)c1` (stereo unspecified), inactive: -10.1%.

As for `CCC1CN(C(=O)N2CCC(C(=O)NCCC3=CCCCC3)CC2)c2ccccc2O1` (stereo unspecified), the “activation” value was inactive: -17.7%.

As to `Cc1ccc(N(CC(=O)N2CCN(c3cccc(C)c3C)CC2)S(=O)(=O)c2c(C)nn(C)c2C)cc1`, the “activation” value was inactive: -36.7%.

Take `CCN(c1cc(C)cc(C)c1)S(=O)(=O)c1nnc(NC(=O)c2ccccc2C)s1`: the “activation” value is inactive: -15.3%. As to `CC(=O)Nc1c(C)nn(-c2ccccc2)c1N1CCC(C(=O)NCc2cccc(F)c2)CC1`, the “activation” value was inactive: -14.3%. For the compound `Cc1c(Cl)cccc1Nc1ccccc1C(=O)O`, the “activation” value is inactive: -22.9%. With `COc1ccc(CCNC(=O)c2cc(=O)[nH]c3ccc(S(=O)(=O)N4CCCCC4)cc23)cc1OC`, the “activation” value was inactive: -1.14%. For `CCOc1ccc(NC(=O)C2CCC(CNS(=O)(=O)c3ccc4c(c3)CCCC(=O)N4)CC2)cc1` (stereo unspecified), the “activation” value was inactive: -7.31%. Under `CCOc1ccc(NC(=O)N2CCN(C(=O)c3nsc4ccccc34)CC2)cc1` stands inactive: -11.9%. Turning to `Cc1cccc(NC(=O)c2ccc(Cn3nc(N4CCN(c5ccccc5)CC4)ccc3=O)o2)c1C`, the “activation” value is inactive: 2.62%.

On to `Cn1nc(C(=O)NCc2ccccc2Cl)c2c1-c1ccccc1SC2`, for which the “activation” value was inactive: -10.1%. Take `CCN(CC)c1nn2c(=O)c(C(=O)NCc3ccccc3Br)cnc2s1`: the “activation” value was inactive: -13%. For the compound `COc1ccc(CCNC(=O)c2ccc3c(c2)CCN3S(=O)(=O)c2ccc(C)cc2)cc1OC`, the “activation” value was inactive: -12.9%.

As to `COc1ccc(-c2cc(C(F)(F)F)nc(SCC(=O)N(C)Cc3ccccc3)n2)cc1`, the “activation” value was inactive: -5%. Turning to `O=S(=O)(c1ccc2nc(Nc3ccc(Br)cc3F)ccc2c1)N1CCCCC1`, the “activation” value was inactive: -2.92%. In the case of `CCSc1nc2sc3c(c2c(=O)n1-c1ccc(C)c(Cl)c1)CCN(C(C)=O)C3`, the “activation” value is inactive: -2.07%. Consider `O=C(COc1ccccc1Cl)Nc1ccc2nc(SCC(=O)N3CCOCC3)sc2c1`, for which the “activation” value is inactive: -7.11%. Take `Cc1ccc(NC(=O)CSc2nccn2-c2ccccc2)cc1`: the “activation” value was inactive: -7.76%.

For `COC(=O)c1ccc2c(c1)N(CC(=O)Nc1ccc(C)cc1Cl)C(=O)c1ccccc1S2`, the “activation” value was inactive: -12%.

For the compound `COc1ccc(C)cc1NC(=O)CN(C)S(=O)(=O)c1ccc2[nH]c(=O)oc2c1`, the “activation” value is inactive: -12.8%.

As for `CCc1nccn1S(=O)(=O)c1cc(Br)ccc1Br`, the “activation” value was inactive: -5.8%. As for `COC(=O)c1sccc1S(=O)(=O)N(CC(=O)Nc1cc(F)ccc1F)c1ccc(C)c(C)c1`, the “activation” value was inactive: -14%.

With `CCc1ccc(-c2[nH]nc3nc(-c4cc(OC)ccc4OC)cc(C(=O)O)c23)cc1`, the “activation” value is inactive: -8.41%. As for `Cc1cc(=O)n(Cc2ccc(Br)cc2F)c2c1c(C)nn2-c1ccccc1`, the figure is inactive: 3.43%; as for `Cc1ccc(NC(=O)Cn2c(=O)n(CCCCC(=O)NCCc3ccccc3)c(=O)c3ccccc32)cc1`, inactive: -2.48%.

As to `Cc1ccccc1Cn1cc(S(=O)(=O)c2ccc(F)cc2)c(=O)c2cc3c(cc21)OCO3`, the “activation” value was inactive: -12.1%.
